Variants at the floor of the assay are shown more often than the library holds them.
B1: TPR 5TU (parent)
chain: GGAUCUUCUCGAUCUAACAAAAAAGACAAAUCUGCCACAAAGCUUGAGAGCAUCUUCGGAUGCAGAGGCGGCAGCCUUCGGUGGCGCGAUAGCGCCAACGUUCUCAACUAUGACACGCAAAACGCGUGCUCCGUUGAAUGGAGUUUAUCAUG

Variants of: B1
Experiment: polymerase ribozyme fitness, log enrichment relative to wild type (log ratio); higher = more active; in vitro selection for triplet polymerase activity
How it was run: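 To select mutant libraries of each subunit of a heterodimeric triplet polymerase ribozyme, built by PCR and transcribed, each was annealed with a biotinylated primer, partner subunit and triplets, then incubated frozen at −7 °C. Extended constructs were gel-excised, captured on streptavidin beads and amplified by RT-PCR, in one round carried out in triplicate. Illumina sequencing of input and output libraries kept genotypes with ≥10 input reads and ≥1 read per output. Fitness is the base-2 logarithm of genotype enrichment relative to wild-type enrichment, from inverse-variance-weighted replicate averages.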

Row | Variant | polymerase ribozyme fitness (log ratio)
1 | GGAUCUUCUCGAUCUAACAAUAAAGACAAAUCUGCCACAAAGCUUGCGAGUAUCUUCGGAUGCAGAGGCGGCAGCCUUCGGUGGCGCGAUAGCGACAACGUUAUCAACUAUGACACGCAAAACGCGUGCUCCGUUGAAUGGAGUUUAUCAUG [A21U A47C C51U C95A C103A] | ≤ -4.2
2 | GGAUCUUCUCGAUCUAACAAUAAAGACAAAUCUGCCACAAAGCUUGCGAGCAUCUUCGGAUGCAGAGGGGGCAGCCUUCGGUGGCGCGACAGCGCCAACGUUCUCAACUAUGACACGCAAAACGCGUGCUCCGUAGGAUGGAGUUUAUCAUG [A21U A47C C69G U90C U135A A137G] | ≤ -4.2
3 | GGAUCUUCUCGAUCUAACAAUAAAGACAAAUCUGCCACAAAGCUUGCGAGCAUCUUCGGAUGCAGAGGCGGCAGCGGUCGGUGGCGCGAUAGCGCCAACGUUCUCAACUAUGACACGCAAAACGCGUGCUCCGUUGAAUGGAGUUUAUCAUG [A21U A47C C76G U77G] | ≤ -4.2
4 | GGAUCUUCUCGAUCUAACAAUAAAGACAAAUCUGCCACAAAGCUUGCGAGCAUCUUCGGAUGCAGAGGCGGCAGCCUUCGGUGGAGCGAUAGCGCCAACGUUCUCAACUUUGACACGCAAAGCGCGUGCUCCUUUGAAUGGAGUUUAUCAUG [A21U A47C C85A A110U A122G G133U] | ≤ -4.2
5 | GGAUCUUCUCGAUCUAACAAUAAAGACAAAUCUGCCACAAAGCUUGCCAGCAUCUUCGGAUGCAGAGGCGGCAGCCUUCGGUGUCGCGAUAGCGCCAACGUUCUCAACUAUGACACGCAAAACGCGUGCUCCGUUGAAUGGAGUUUAUCAUG [A21U A47C G48C G84U] | ≤ -4.2
6 | GGAUCUUCUCGAUCUAACAAUAAAGACAAAUCUGCCACAAAGCUUGAGCGCAUCUUCGGAUGCAGAGGCGGCAGCCUUCGGUGGCGCGAUAGCGCCAAACUUCUCAACUAUGACACGAAAAACGCGUGCUCCGUUGAAUGGAGUUUAUCAUG [A21U A49C C99A G100C C118A] | ≤ -4.2
7 | GGAUCUUCUCGAUCUAACAAUAAAGACAAAUCUGCCACAAAGCUUGAGGGCAUCUUCGGAUGCAGAGGCGGCAGCCUUCGGUGGCGCGAUAGCGCCAGCGUUCUCAACUAUGACACGCAAAACGCGUGCUCCGUUGAAUGGAGUUUAUCAUG [A21U A49G A98G] | -0.555
8 | GGAUCUUCUCGAUCUAACAAUAAAGACAAAUCUGCCACAAAGCUUGAGAGCGUCUUCGGAUGCAGAGGCGCCAGCCUUCGGUGGUGCGAUAGCGCCAACGUUCUCAACUAUGACACGCAAAACGCGUGCUCUGUCCAAUGGAGUUUAUCAGG [A21U A52G G71C C85U C132U U135C G136C U151G] | ≤ -4.2
9 | GGAUCUUCUCGAUCUAACAAUAAAGACAAAUCUGCCACAAAGCUUGAGAGCAUCUUCGGCUGCAGAGGCGGCAGCCUUCGGUGGCGAGAUAGCGCCAGCCUUCUCAACUAUGACACGCAAAACGCGUGCUCCGUUGAAUGGAGUUUAUCAUG [A21U A60C C87A A98G G100C] | ≤ -4.2
10 | GGAUCUUCUCGAUCUAACAAUAAAGACAAAUCUGCCACAAAGCUUGAGAGCAUCUUCGGAUGCAGAGGCGGCGGCCUUCGGUGGCGCGAUAGCGCCAACGUUCUCAACUAUGACACGCAAAACGCGUGGUCCGUUGAAUGGAGUUUAUCAUG [A21U A73G C129G] | -3.49
11 | GGAUCUUCUCGAUCUAACAAUAAAGACAAAUCUGCCACAAAGCUUGAGAGCAUCUUCGGAUGCAGAGGCGGCAGCCUUCGGUGGCGCGAUCGCGCCAACGUUCUCAACUAUGACACGCAAAACGCGUGCUCCGUUGAAUGGAGUUUAUCAUG [A21U A91C] | ≤ -4.2
12 | GGAUCUUCUCGAUCUAACAAUAAAGACAAAUCUGCCACAAAGCUUGAGAGCAUCUUCGGAUGCAGAGGCGGCAGCCUUCGGUGGCGCGAUAGCGCCAACGUUCUCAACUAUGACACGCAAAACGCGUGCUCCGUUGAAUGGUGUUUAUCAUG [A21U A142U] | -0.552
13 | GGAUCUUCUCGAUCUAACAAUAAAGAAAAAUCUGCCACAAAGCUUCAGAGCAUCUUCGUAUGCAAAGGCGGCAGCCUUCGGUGGCGGGAUAGCGCCAACGUUCUCAACUAUGACACGCAAAACGCGUGCUCCGUUGAAUGGAGUUUACCAUG [A21U C27A G46C G59U G65A C87G U148C] | ≤ -4.2
14 | GGAUCUUCUCGAUCUAACAAUAAAGAGAAAUCUGCCACAAGGCUUGAGAGCAUCUUCGGGUGCAGAGGCGGCAGCCUUCGGUGGCGCGAUAGCGCCAACGUUUUCAACUAUGACACGCAAAACGCGUGCUCCGUUGAAUGGAGUUUAUCAUG [A21U C27G A41G A60G C103U] | ≤ -4.2
15 | GGAUCUUCUCGAUCUAACAAUAAAGAGAAAUCUGCCAUAAAGCUUGAGAGCAUCUACGGAUGCAGAGGCGACAGCCUUCGGUGGCGCGAUAGCGCCAAAGUUCUCAACUAUGACACGCAAAACGCGUGCUCCGUUGAAAGGAGUUUCUCAUG [A21U C27G C38U U56A G71A C99A U139A A147C] | ≤ -4.2
16 | GGAUCUUCUCGAUCUAACAAUAAAGACAAAUAUGCCACAAAGCUUGAGAGCAUCUUCCGAUGCAGAGGCGGCAGCCUUCGGUGGCGCGAUAGCGCCAACGUUCUCAACUAUGACACGCAAAACGCGUGCUCCGUUGAAUGGAGUUUAUCAUG [A21U C32A G58C] | ≤ -4.2
17 | GGAUCUUCUCGAUCUAACAAUAAAGACAAAUAUGCCACAAAGCUUGAGAGCAUCUUCGGAUGCAGAGGCAGCAGCCUUCGGCGGCGUGAUAGCGCAGACGUUCUCAACUAUGACACGCAAAACGCGUGCUCCGUUGAAUGGAGUUUAUCAUU [A21U C32A G70A U82C C87U C96A A97G G152U] | ≤ -4.2
18 | GGAUCUUCUCGAUCUAACAAUAAAGACAAAUGUGCCACAAAGCUUGAGAGCAUCUUCGGAUGCAGAGGCGGCUGCCUUGGGUGGCGCAAUAGCGCCAACGUUCUCAACUAUGACACGCAAAACGCGUGCUCCGUUGAAUGGAGUUUAUCAUG [A21U C32G A73U C79G G88A] | ≤ -4.2
19 | GGAUCUUCUCGAUCUAACAAUAAAGACAAAUGUGCCACAAAGCAUGAGAGCAUCUUGGGAUGCAGAGGCGGCAGCCUUCGGUGGCGCGAUAGCACCAACCUUCUCAACUAUGACACGCAAAACGCGUGCUCCGUUGAAUGGAGUUUAUCAUG [A21U C32G U44A C57G G94A G100C] | ≤ -4.2

Reference: the RNAGym collection of RNA variant scans (doi:10.1073/pnas.2313332121)
